In article PMC4336329 (PLoS ONE, 2015):
Out of some 310,000 compounds screened, about 14,000 (4.5%) showed an effect of 50% or more. The effect is printed as a negative number. The list shows a part of the results.

target: human ether-à-go-go-related gene (hERG) potassium channel (human, UniProt Q12809); test: primary screen, population patch clamp on CHO cells stably expressing hERG
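Also: peak tail current of the secondary pulse compared with the same well before compound.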

Chain of human ether-à-go-go-related gene (hERG) potassium channel (Q12809 whole entry, looked up): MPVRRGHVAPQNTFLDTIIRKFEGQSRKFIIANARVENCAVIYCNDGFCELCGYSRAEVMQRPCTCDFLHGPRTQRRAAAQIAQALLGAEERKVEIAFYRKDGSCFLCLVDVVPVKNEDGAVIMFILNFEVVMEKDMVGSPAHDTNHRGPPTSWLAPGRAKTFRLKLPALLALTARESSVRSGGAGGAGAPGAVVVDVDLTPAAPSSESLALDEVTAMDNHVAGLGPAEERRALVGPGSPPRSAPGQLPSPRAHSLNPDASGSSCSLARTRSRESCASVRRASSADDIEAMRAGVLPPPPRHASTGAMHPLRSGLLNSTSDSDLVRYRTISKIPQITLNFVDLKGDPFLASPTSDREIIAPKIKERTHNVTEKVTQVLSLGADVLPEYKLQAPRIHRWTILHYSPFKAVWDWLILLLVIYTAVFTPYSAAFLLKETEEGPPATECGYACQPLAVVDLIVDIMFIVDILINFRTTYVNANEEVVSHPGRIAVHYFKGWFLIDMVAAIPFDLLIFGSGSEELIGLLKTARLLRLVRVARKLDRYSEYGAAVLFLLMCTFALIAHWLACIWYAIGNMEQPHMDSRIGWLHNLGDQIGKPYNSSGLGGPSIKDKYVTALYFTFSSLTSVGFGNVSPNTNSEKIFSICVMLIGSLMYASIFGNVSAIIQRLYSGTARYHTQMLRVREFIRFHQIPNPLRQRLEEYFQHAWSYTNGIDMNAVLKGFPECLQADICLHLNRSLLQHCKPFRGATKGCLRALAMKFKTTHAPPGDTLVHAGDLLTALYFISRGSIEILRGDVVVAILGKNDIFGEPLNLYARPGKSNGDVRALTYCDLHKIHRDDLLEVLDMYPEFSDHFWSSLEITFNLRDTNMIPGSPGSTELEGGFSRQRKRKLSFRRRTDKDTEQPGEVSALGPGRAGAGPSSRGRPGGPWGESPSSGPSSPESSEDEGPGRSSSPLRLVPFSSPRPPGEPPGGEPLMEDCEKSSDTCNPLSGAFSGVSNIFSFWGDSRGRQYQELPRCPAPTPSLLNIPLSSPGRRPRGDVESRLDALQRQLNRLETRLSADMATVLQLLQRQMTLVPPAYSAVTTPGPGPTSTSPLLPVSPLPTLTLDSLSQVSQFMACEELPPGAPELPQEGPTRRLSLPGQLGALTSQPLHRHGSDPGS

SMILES | hERG current change (%, negative = inhibition) at 10uM [%]
COc1cccc(NC(=O)N2CCC(NC(=O)C(Cc3ccccc3F)NC(C)=O)CC2)c1 (stereo not shown) | 7.04
c1coc(-c2nn3c(Cn4nnc5ccccc54)nnc3s2)c1 | -10.1
COc1ccc2oc(=O)c(C(=O)NC3CCCCCC3)cc2c1 | 14.1
COCCSc1ccccc1C(=O)Nc1ccncc1 | 16.4
CCOC(=O)c1sc(NC(=O)CSc2nc3ccccc3s2)c(C(=O)OCC)c1C | 14.9
CCN(CC(=O)NCc1ccc(Cl)cc1)C(=O)CSc1cccc(C(F)(F)F)c1 | -23.3
COc1cccc(CCc2nnc(CCC(=O)NCCC3CCCCO3)o2)c1 (stereo not shown) | 9.16
Cc1ccc(C(=O)O/N=C(\N)c2ccc(Br)cc2)cc1 | 12.3
COc1cc2cc(C(=O)N3CCN(Cc4ccc5c(c4)OCO5)CC3)c(=O)oc2cc1OC | -0.572
O=C(Cn1c(C(=O)NCc2ccco2)cc2sccc21)c1ccccc1 | 16.5
CCOc1ccc(C(=O)COC(=O)C2CCN(c3ccc(C(F)(F)F)cn3)CC2)cc1 | -43.3
CCc1c(O)nc(SCc2nc3ccccc3c(=O)[nH]2)[nH]c1=O | 25.3
CCN(c1ccccc1)S(=O)(=O)c1ccc(C(=O)N2CC(C)CC(C)C2)cc1 (stereo not shown) | -30.3
CCN(CC)c1ccc(/C=N/n2nnnc2N)c(O)c1 | 14.6
O=C(Cc1ccccc1)N/N=C/c1ccccn1 | 14.7
COCCN(C(=O)Cc1ccc(OC)c(OC)c1)c1nc(-c2cc(OC)ccc2OC)cs1 | 19.8
O=C(Cc1cccc2ccccc12)Nc1cc(Cl)ccc1C(=O)O | 15.7
Cc1ccc(S(=O)(=O)CCc2nnc(N)s2)cc1C | 9.4
CC(C)OC(=O)Cn1c(-c2ccccc2)c(-c2ccccc2)nnc1=O | 5.82
C=CCc1ccccc1OCC(O)CN1C(=O)c2ccccc2C1=O (stereo not shown) | -27.2
CC1Cc2ccccc2N1C(=O)c1cnc2sccn2c1=O (stereo not shown) | 14.4
CCC1CCc2sc(C(=O)NCC3CCCO3)cc2C1 (stereo not shown) | -12.1

SMILES | hERG current change (%, negative = inhibition) at 10uM [%]
Cc1ccc2nc(-c3ccc(NC(=O)CN(C)S(=O)(=O)c4ccccc4)cc3)sc2c1 | 12.4
CNC(=O)CSc1nnnn1-c1ccc2c(c1)OCCO2 | -0.372
O=C1CSC(=S)N1CC1CCCO1 (stereo not shown) | 1.13
Cc1cc(C)c(C)c(OC(=O)c2sc(Cl)nc2C)c1 | -13.3
CCN(CC(=O)Nc1ccc(OC)cc1)C(=O)CSCC(=O)Nc1cc(C)on1 | 8.75
COc1ccc2sc3ccccc3c(=O)c2c1 | -10.1
Cc1cccc(C)c1NC(=O)c1sc(Cl)nc1C | -5.97
CCCn1cc2c(c1-c1ccc(C)cc1)c(=O)n(C)c(=O)n2C | -6.72
Cc1cc(=O)[nH]c(/N=C(\N)Nc2ccc(SC(F)F)cc2)n1 | -15.8
CCN(CC(=O)Nc1c(F)cccc1F)C(=O)C1CC1C (stereo not shown) | 1.31
O=C(COC(=O)c1ccc2c(c1)S(=O)(=O)c1ccccc1C2=O)NC1CC1 | -1.44
O=C1NC(C(=O)O)=CC(c2cccc(Cl)c2Cl)N1 (stereo not shown) | 12.8
CCN(CC)S(=O)(=O)c1cccc(C(=O)NC(C(=O)Nc2nnc(C)s2)C(C)C)c1 (stereo not shown) | -3.34
CCn1cc(C(=O)OCC(=O)c2cc(C)n(-c3ccccc3)c2C)c(=O)c2ccc(C)nc21 | 6.93
CCCC(=O)Nc1ccc(C(=O)NNC(=S)NC(=O)c2ccc(Br)o2)cc1 | 13.5
N#Cc1ccc(C(=O)Nc2cc(S(=O)(=O)Nc3ccc(Cl)cc3)ccc2N2CCCCC2)cc1 | 6.46
COC(C(=O)Nc1ccnn1C1CCN(C(=O)c2cccc(F)c2)CC1)c1ccccc1 (stereo not shown) | 8.16
Cc1cccc(NS(=O)(=O)c2cccc(C(=O)N3CCN(C/C=C/c4ccccc4)CC3)c2)c1 | -18.4
Cc1nnc(Oc2ccccc2)c2ccccc12 | -4.82
O=C(Cc1ccc(Br)cc1)Nc1ccc(S(=O)(=O)Nc2ncccn2)cc1 | 18.7
Cc1ccc(C(=O)N2CCN(c3ccc(NC(=S)NC(=O)Cc4ccccc4)cc3)CC2)cc1 | -17.1
